# According to PubChem BioAssay AID686970 (National Center for Advancing Translational Sciences (NCATS), 2013):
# Screen size: about 360,000 compounds; about 6,000 (1.7%) were called active. The shares of active, inactive and inconclusive entries below differ from those in the screen. The call rests on the fitted dose curve; in most records, active means well fitted cell-killing curve with a large enough effect; inconclusive means small, poorly fitted or top-dose-only effect, or effect the other way; inactive means flat fitted curve, though single readings scatter. Potencies of inconclusive entries are left out as doubtful fits.
# Assay: qHTS for induction of synthetic lethality in tumor cells producing 2HG: qHTS for the HT-1080-NT fibrosarcoma cell line;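 further: NT is the 2HG producing partner of a matched IDH1 knockdown line; nearly all actives have a fitted effect of over 55% in size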;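 on activity, negative = less viability: 0% = DMSO-treated cells and -100% = media-only wells without cells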
# Details: HT-1080-NT fibrosarcoma viability, CellTiter-Glo ATP luminescence, 48 h; activity, negative = less viability: at 46.1 µM (top of the series) unless noted
# In short: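 Luminescent CellTiter-Glo readout after 48 hours of compound exposure at 37 degrees C defined viability of HT-1080-NT cells. Activity was normalized to DMSO wells and cell-free media wells; concentration-response curves were fitted and assigned curve classes.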
# Potency means the concentration at half of the fitted maximal effect; tags describe the fitted curve by direction and shape.
SMILES,Potency,"activity, negative = less viability"
Cc1ccc(S(=O)(=O)Nc2ccc(Nc3nccn4c(-c5cccc(OC(F)(F)F)c5)cnc34)cc2)cc1,active: 18.4 µM,
Cc1cc(Br)c(NC(=O)COC(=O)C2CC2C)c(Br)c1 (configuration not stated),"inconclusive [rising, single point]",
O=C(NCCN1CCCC1)c1ccc(Cn2c(=S)[nH]c3ccc(Br)cc3c2=O)cc1,"inconclusive [cytotoxic, partial curve]",
O=C(CSc1nc2ccccc2c(=O)n1-c1ccccc1Cl)NC1CCS(=O)(=O)C1 (configuration not stated),,inactive: -5.77% [at 9.24 µM]
CC1C(=O)N(Cc2ccc([N+](=O)[O-])cc2)c2ccccc2N1C(=O)c1c(F)cccc1F (configuration not stated),inactive,
Cc1c(C(=O)Nc2nonc2-c2ccc(F)cc2)oc2ccc(F)cc12,"inconclusive [cytotoxic, partial curve]",
C=CCn1c(COc2ccccc2-c2ccccc2)nnc1SCC(=O)NC(=O)NCc1ccco1,"inconclusive [rising, single point]",
COc1cc(NC(=O)c2ccccc2NS(=O)(=O)c2ccc(Cl)s2)cc(OC)c1,"inconclusive [cytotoxic, single point]",
COc1ccc(OC)c(-n2c(=S)[nH]c3cc(C(=O)N4CCCCC4)ccc3c2=O)c1,"inconclusive [rising, full curve, poor fit]",
COc1ncnc2c1ncn2CCCN1CCN(c2ccccn2)CC1,inactive,
O=C(Nc1ccccc1C(=O)NCc1ccco1)Nc1cccc2ccccc12,"inconclusive [cytotoxic, single point]",
CCN(CC)C(=O)[C@H]1CC(CC(=O)NC/C=C(\C)CCC=C(C)C)C(=O)N2CCc3c([nH]c4ccc(OC)cc34)[C@]12C (some centres not stated),"inconclusive [cytotoxic, single point]",
Cc1c(C(=O)N/N=C/c2ccc(-c3ccccc3[N+](=O)[O-])o2)sc(N)c1C#N,"inconclusive [cytotoxic, single point]",
CC(C)CC1C(=O)N(Cc2cn(Cc3ccco3)nn2)CCS(=O)(=O)N1Cc1ccc(-c2cccc(N(C)C)c2)cc1 (configuration not stated),inactive,
Cc1ccc(S(=O)(=O)NCCC(=O)Nc2cccc(Cl)c2)cc1,inactive,
COc1ccc(-c2cn3ccccc3n2)cc1OC,"inconclusive [cytotoxic, partial curve]",
CC1(C(=O)NCc2ccccc2)Cc2c(-c3ccc(C(N)=O)cc3)ccnc2O1 (configuration not stated),"inconclusive [cytotoxic, full curve, poor fit]",
Cc1ccc(CCC(=O)Nc2ccc(Cl)cc2)o1,"inconclusive [cytotoxic, partial curve]",
CCCCN(C(=O)CCOc1ccc(OCC)cc1)c1c(N)n(Cc2ccccc2)c(=O)[nH]c1=O,inactive,
COc1cc([N+](=O)[O-])ccc1-c1ccc(/C=N\n2cnnc2)o1,inactive,
CC(C)NC(=O)OCc1c(COC(=O)NC(C)C)c([N+](=O)[O-])n2c1CCC2,inactive,

SMILES,Potency,"activity, negative = less viability"
COC(=O)[C@@]12CCCN1[C@H](c1ccc(-c3ccc(Cl)c(Cl)c3)c(OC)c1)[C@H]1C(=O)N(C)C(=O)[C@H]12,"inconclusive [cytotoxic, single point]",
O=C(NCC1CCCC(CNC(=O)Nc2ccc(Cl)cn2)C1)Nc1ccc(Cl)cn1 (configuration not stated),"inconclusive [cytotoxic, single point]",
CC1OC(OC2C(CO)OC(OCC3OC(OC(=O)[C@@]45CCC(C)(C)C[C@@H]4C4=CC[C@@H]6[C@@]7(C)CCC(OC8OCC(O)C(O)C8OC8OC(C)C(O)C(O)C8O)[C@@](C)(CO)C7CC[C@@]6(C)[C@]4(C)CC5)C(O)C(O)C3O)C(O)C2O)C(O)C(O)C1O (some centres not stated),inactive,
O=C(Nc1ccc(-c2cccc(F)c2)cc1)C1CCCN(Cc2ccccn2)C1 (configuration not stated),inactive,
COc1cccc(/C=N/NC(=O)NC23CC4CC(CC(C4)C2)C3)c1O,"inconclusive [cytotoxic, single point]",
CC1(C)N=C(N)N=C(N)N1c1ccc(Oc2ccc(Cl)cc2)c(Cl)c1,active: 2.31 µM,
Cc1ccc([C@H]2C(C#N)=C(N)Oc3cc(C)oc(=O)c32)o1,"inconclusive [cytotoxic, single point]",
C=CC(C)(C)c1c2occc2c(O)c2ccc(=O)oc12,"inconclusive [cytotoxic, single point]",
N/C(Cc1ccc(Cl)c(Cl)c1)=N\OC(=O)c1cccs1,"inconclusive [cytotoxic, single point]",
C=CCNc1nc(Cl)nc(Nc2ccc([N+](=O)[O-])cc2)n1,inactive,
O=C(Nc1ccc(N2CCOCC2)c(S(=O)(=O)Nc2ccc(Cl)cc2)c1)c1cnccn1,inactive,
COc1ccc(S(=O)(=O)N2Cc3ccccc3CC2C(=O)N2CCOCC2)cc1 (configuration not stated),,inconclusive: 5.94%
COc1ccccc1NC(=O)c1ccccc1C(=O)Nc1ccccc1OC,inactive,
COc1ccc(CN2C(=O)c3ccccc3C2C(=O)NC2CCC(C)CC2)c(OC)c1 (configuration not stated),inactive,
Cc1onc(-c2c(F)cccc2Cl)c1C(=O)Nc1cc(S(=O)(=O)N2CCCCC2)ccc1O,"inconclusive [cytotoxic, single point]",
CCc1ccccc1NCC(=O)Nc1ccc(Cl)c(C(F)(F)F)c1,"inconclusive [cytotoxic, single point]",
CCOC(=O)Cn1c(=NC(=O)C(C)(C)C)sc2cc([N+](=O)[O-])ccc21,"inconclusive [cytotoxic, single point]",
COc1ccc(N2CCN(C(=O)COC(=O)CNC(=O)c3ccc(C)cc3)CC2)cc1,inactive,
CC(=O)Nc1ccc(NC(=O)C(C)OC(=O)C(C)SCC(=O)Nc2ccc(F)cc2)cc1 (configuration not stated),inactive,
COc1cc(/C=C/C(=O)c2ccc3c(c2)OCO3)cc(Cl)c1O,"inconclusive [cytotoxic, single point]",
COc1ccc(C(CNC(=O)COc2cccc(C(F)(F)F)c2)N2CCCC2)cc1 (configuration not stated),inactive,
